Test results taken from paper PMC4336329 (PLoS ONE, 2015).
Screen size: about 310,000 compounds; about 14,000 (4.5%) showed an effect of 50% or more. The effect is printed as a negative number. The list shows a part of the results.

Target: human ether-à-go-go-related gene (hERG) potassium channel (human, UniProt Q12809)
Assay: primary screen, population patch clamp on CHO cells stably expressing hERG
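Note: peak tail current of the secondary pulse compared with the same well before compound.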

Sequence of human ether-à-go-go-related gene (hERG) potassium channel (Q12809 whole entry, looked up): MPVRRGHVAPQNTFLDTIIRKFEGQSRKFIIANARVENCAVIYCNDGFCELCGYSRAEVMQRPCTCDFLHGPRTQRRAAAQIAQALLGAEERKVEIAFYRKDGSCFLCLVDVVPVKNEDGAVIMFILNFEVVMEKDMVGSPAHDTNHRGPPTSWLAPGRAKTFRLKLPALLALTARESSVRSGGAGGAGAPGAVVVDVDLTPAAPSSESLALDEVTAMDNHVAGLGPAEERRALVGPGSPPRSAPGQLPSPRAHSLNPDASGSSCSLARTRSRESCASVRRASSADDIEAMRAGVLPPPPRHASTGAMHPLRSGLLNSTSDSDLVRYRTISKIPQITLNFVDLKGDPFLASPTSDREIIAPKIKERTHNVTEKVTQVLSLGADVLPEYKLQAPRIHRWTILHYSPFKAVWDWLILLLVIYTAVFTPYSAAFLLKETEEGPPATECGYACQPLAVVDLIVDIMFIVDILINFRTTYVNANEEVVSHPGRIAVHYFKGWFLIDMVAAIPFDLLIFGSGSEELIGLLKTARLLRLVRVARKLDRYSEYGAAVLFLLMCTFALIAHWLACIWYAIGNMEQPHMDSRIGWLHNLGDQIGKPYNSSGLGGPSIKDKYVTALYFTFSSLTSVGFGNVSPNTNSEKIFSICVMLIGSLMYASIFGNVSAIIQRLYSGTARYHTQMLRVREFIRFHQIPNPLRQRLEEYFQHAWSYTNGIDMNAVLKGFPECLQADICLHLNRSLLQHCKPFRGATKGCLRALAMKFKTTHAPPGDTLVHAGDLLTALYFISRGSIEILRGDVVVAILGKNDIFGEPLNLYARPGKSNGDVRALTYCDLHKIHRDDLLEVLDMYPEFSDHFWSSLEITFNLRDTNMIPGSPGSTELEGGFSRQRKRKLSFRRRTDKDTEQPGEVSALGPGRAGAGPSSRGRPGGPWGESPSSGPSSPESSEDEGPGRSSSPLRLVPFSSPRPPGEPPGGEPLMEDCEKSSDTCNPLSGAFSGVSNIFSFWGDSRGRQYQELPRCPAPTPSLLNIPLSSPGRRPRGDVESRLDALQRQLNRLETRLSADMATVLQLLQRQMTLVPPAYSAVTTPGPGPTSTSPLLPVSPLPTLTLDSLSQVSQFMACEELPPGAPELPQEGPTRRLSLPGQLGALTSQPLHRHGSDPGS

Row | Structure (SMILES) | hERG current change (%, negative = inhibition) at 10uM [%]
1 | Cl.Clc1ccc(C2=NNC(=NCC3CCCO3)SC2)cc1 (stereo not shown) | 0.854
2 | CC1Cc2ccccc2N1C(=O)CN1CCCCC1.Cl (stereo not shown) | 10.9
3 | Cc1cc(Nc2ccc(Cl)cc2)nc(N2CCOCC2)n1 | 11.5
4 | C[C@@H](NC(=O)c1nc[nH]c1C(=O)NCc1ccc(CNC(=O)OC(C)(C)C)cc1)c1ccccc1 | 6.47
5 | COc1ccccc1NC(=O)C1=C(C)NC(=O)NC1c1cccc(OC)c1OC (stereo not shown) | 7.41
6 | Oc1nc(Nc2ccccc2)sc1/C=C1\C=Nc2ccccc21 | -1.37
7 | COC(=O)C1CCN(c2cnccn2)CC1 | 12.2
8 | CC1CCC(NC(=O)CNC(=O)Cc2cccc3ccccc23)CC1 (stereo not shown) | 9.05
9 | CCCC1=Nc2cc(C(=O)NCCN3CCOCC3)ccc2Sc2ccc(C)cc21 | -34.3
10 | COc1cccc(C(=O)SC2=NCCS2)c1 | -12.5
11 | Cn1c(CN2CCOCC2)nnc1SCc1ccc(C#N)cc1 | 17.5
12 | O=C(O)CSC1CC(=O)N(c2ccc(Cl)c(Cl)c2)C1=O (stereo not shown) | 9.61
13 | Cc1nn(C2CCS(=O)(=O)C2)c(Cl)c1/C=C/C(=O)OCC(=O)c1cc(C)n(-c2ccc(F)cc2)c1C (stereo not shown) | 4.11
14 | Cc1cccc(OCc2cc(-c3ccccc3)no2)c1C | 19.2
15 | Clc1ccc(NCn2cncn2)nc1 | 6.58
16 | CN(C)c1ccc(NC(=O)CN2CCC(N3CCCCC3)CC2)cc1.O=C(O)C(=O)O | 9.68
17 | Cc1c(Cl)cccc1NS(=O)(=O)c1c(C(=O)N2CCOCC2)c(C)n(C)c1C | -2.55
18 | Cn1c(SCC(=O)Nc2ccc(F)cc2)nc2c([nH]c3ccccc32)c1=O | -14.1
19 | COc1ccc(OC)c(S(=O)(=O)N(C(C)=O)c2ccc3oc(=O)sc3c2)c1 | -21.2
20 | CC1Cn2c(nc3sc4c(c3c2=O)CC(C)(C)OC4)N1CCO (stereo not shown) | 11.7
21 | CCOc1ccc(S(=O)(=O)NCCC(=O)Nc2nnc(C)s2)cc1 | -13.7
22 | CCOc1ccccc1NC(=S)N1CCN(c2cccc(OC)c2)CC1 | 3.57
23 | COc1nnc(-c2ccc(N3CCOCC3)c(NC(=O)c3ccccc3)c2)c2ccccc12 | -19.5
24 | Cc1ccc(-c2nnc(N3CCN(C(=O)c4cccs4)CC3)c3ccccc23)cc1 | -65.4
25 | CC1CCCCN1C(=O)c1ccc(S(=O)(=O)N2CCCCC2C)cc1 (stereo not shown) | -9.35
